# Data: PubChem BioAssay AID488969 (Vanderbilt High Throughput Screening Facility, 2010)
# Whole data set: some 110,000 compounds, median “z-score” near -0.1, cut for the highest 2% near 2. Some of the results follow.
# Target: Metabotropic glutamate receptor 8 (Rattus norvegicus) (UniProt P70579)
# Test: rat mGluR8 modulators via GIRK flux, primary screen, cell-based, thallium flux, HTS (AID 488969)
# Conditions: HEK293 rat mGluR8, GIRK (G protein-gated inwardly rectifying potassium channel) thallium flux, FluoZin2; at 10 µM; stronger effect = higher value; submaximal glutamate (EC20) added with thallium
# Chain of UniProt P70579 (P70579 whole entry, looked up): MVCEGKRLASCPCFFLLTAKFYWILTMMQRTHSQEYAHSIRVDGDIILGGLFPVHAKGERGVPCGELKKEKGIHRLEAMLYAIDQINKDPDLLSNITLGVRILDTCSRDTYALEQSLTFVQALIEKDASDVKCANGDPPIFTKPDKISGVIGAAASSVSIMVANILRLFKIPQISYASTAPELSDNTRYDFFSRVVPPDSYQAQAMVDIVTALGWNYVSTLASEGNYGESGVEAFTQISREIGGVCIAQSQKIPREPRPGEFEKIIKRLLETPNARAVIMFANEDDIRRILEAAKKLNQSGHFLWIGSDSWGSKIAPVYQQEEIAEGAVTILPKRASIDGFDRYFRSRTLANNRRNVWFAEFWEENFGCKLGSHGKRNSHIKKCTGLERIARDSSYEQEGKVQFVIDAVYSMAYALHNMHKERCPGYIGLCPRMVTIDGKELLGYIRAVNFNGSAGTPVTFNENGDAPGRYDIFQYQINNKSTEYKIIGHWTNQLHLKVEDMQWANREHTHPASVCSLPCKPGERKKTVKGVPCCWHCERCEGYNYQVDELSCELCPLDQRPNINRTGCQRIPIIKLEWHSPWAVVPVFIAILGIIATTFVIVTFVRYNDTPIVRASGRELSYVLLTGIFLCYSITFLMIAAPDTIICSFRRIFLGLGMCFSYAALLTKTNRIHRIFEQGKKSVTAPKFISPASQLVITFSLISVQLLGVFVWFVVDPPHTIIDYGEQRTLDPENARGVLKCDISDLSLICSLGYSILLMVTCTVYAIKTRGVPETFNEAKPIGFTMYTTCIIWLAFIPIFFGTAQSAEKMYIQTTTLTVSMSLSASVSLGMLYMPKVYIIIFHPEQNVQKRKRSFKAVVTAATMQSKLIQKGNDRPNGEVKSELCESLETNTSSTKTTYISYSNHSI
row,SMILES,z-score
1,Cc1cc(S(=O)(=O)NC2CCCCC2)c(C)s1,-0.609
2,Cc1cc(SCC(=O)c2cccs2)nc2c(C)cccc12,-0.163
3,CCOC(=O)c1ccc(-c2ccc(/C=N/NC(=O)CN(c3ccccc3Cl)S(C)(=O)=O)o2)cc1,0.0251
4,Cc1nc(Nc2nc(-c3ccccc3)cc(=O)[nH]2)nc2ccccc12,-0.285
5,O=C1c2cccnc2C(Nc2ccccc2)N1Cc1ccco1 (centres undefined),-0.0682
6,CC(C(=O)O)N1C(=O)C2C3CC(C2C1=O)C1C(c2ccccc2)c2sc(=O)[nH]c2SC31 (centres undefined),-0.0636
7,O=C(c1cc(-c2ccccc2Cl)on1)N1CCN(C(=O)c2ccco2)CC1,0.424
8,COc1cc(C(=O)NCc2ccco2)c(Br)c(OC)c1OC,-1.21
9,CN(C)S(=O)(=O)c1cc(C(=O)O)c(NC2CCCCC2)cc1Cl,-2.9
10,CS(=O)(=O)c1ccc(Cl)c(NC(=O)c2ccc3ccccc3c2)c1,-0.115
11,CCn1c(=O)n(CC)c2cc(S(=O)(=O)N3CCOCC3)ccc21,-0.206
12,CCCCC(CC(C)O)c1n[nH]c(=S)n1-c1ccccc1 (centres undefined),-0.118
13,COCCNC(=O)COC(=O)/C=C/c1cnc2ccccc2n1,-0.0356
14,N=c1ccn(Cc2ccc(Cl)c(Cl)c2)cc1,0.00793
15,Cc1c(C)[n+](=O)c(-c2cccs2)c(C)n1[O-],-0.242
16,Cc1cc(NS(=O)(=O)c2ccc(NC(=O)c3cc4ccccc4o3)cc2)nc(C)n1,-1.23
17,CCCSc1nc(O)c(C2OC(=O)c3c2ccc(OC)c3OC)c(=O)n1C (centres undefined),-0.174
18,C=C(C)CC1N(c2cccc(OC)c2)C(=O)C2C(C(=O)O)C3C=CC21O3 (centres undefined),-0.0137
19,CCOc1ccc(-n2c(=O)c3c4c(sc3n(CC(=O)NCc3ccco3)c2=O)CCC4)cc1,0.0326
20,CCOC(=O)c1sc2ccc(S(=O)(=O)N3CCOCC3)cc2c1N,0.0584
21,O=C(NC(Cc1c[nH]c2ccccc12)C(=O)Nc1ccc(F)c([N+](=O)[O-])c1)c1cccs1 (centres undefined),-0.409
22,C/C(=N/NC(=O)c1sc(=S)n(C)c1C)c1ccccc1,0.314
23,CCCN1CCN(C(=O)c2cn(CC(C)C)c(=O)c3cc(OC)c(OC)cc23)CC1,-0.37
24,COc1ccc(C2CC(C(F)(F)F)n3nc(C(=O)NCCCn4ccnc4)cc3N2)cc1OC (centres undefined),-0.288
25,CCC1(CC)Cc2ccccc2-c2nc3ccccc3c(=O)n21,-0.682
26,CC(C)(C)C1CCC(=NNC(=O)c2cc3c(s2)CCCC3)CC1 (centres undefined),-0.603
27,COc1cccc(-c2nnc(SCC(=O)N3CC(C)CC(C)C3)o2)c1 (centres undefined),-0.181
28,O=C(Nc1ccsc1C(=O)N1CCCCCC1)c1ccccc1,-0.388
29,O=C(COc1ccc2c(c1)C(=O)CC1(CCCCC1)O2)NCc1ccccc1,-0.149
